Experimental data: the supplement of paper PMC12645437, “Orthogonal IMiD-Degron Pairs Induce Selective Protein Degradation in Cells” (ACS Chemical Biology, 2025)
The list shows a part of the results.

B1: Q9UKT9 (peptide)
chain: FNCDICGANFTQKGNLLRHIKL
B2: Q9UKT9 (peptide)
chain: FWCDICGATFTQKGNLLRHIKL
B3: Q9UKT9 (peptide)
chain: LHCPICGFRCTQKGNLLRHIKL
B4: Q9UKT9 (peptide)
chain: FYCEQCGALFTQKGNLLRHIKL
B5: Q9UKT9 (peptide)
chain: FKCPICGHFFTQKGNLLRHIKL
B6: Q9UKT9 (peptide)
chain: FSCPICGRAFTQKGNLLRHIKL
B7: Q9UKT9 (peptide)
chain: FVCEICGRQFTQKGNLLRHIKL
B8: Q9UKT9 (peptide)
chain: FKCEVCGAMFTQKGNLLRHIKL
B9: Q9UKT9 (peptide)
chain: FECSVCGHNFTQKGNLLRHIKL
B10: Q9UKT9 (peptide)
chain: FMCEQCGAQFTQKGNLLRHIKL
B11: Q9UKT9 (peptide)
chain: FTCPVCGAPFTQKGNLLRHIKL
B12: Q9UKT9 (peptide)
chain: FVCDICGANFTQKGNLLRHIKL
B13: Q9UKT9 (peptide)
chain: FRCNVCGALFTQKGNLLRHIKL
B14: Q9UKT9 (peptide)
chain: FVCEVCGAIFTQKGNLLRHIKL
B15: Q9UKT9 (peptide)
chain: FKCNICGATFTQKGNLLRHIKL
B16: Q9UKT9 (peptide)
chain: FECEICGRSFTQKGNLLRHIKL
B17: Q9UKT9 (peptide)
chain: FSCNVCGALFTQKGNLLRHIKL
B18: Q9UKT9 (peptide)
chain: FRCEQCGAVFTQKGNLLRHIKL
B19: Q9UKT9 (peptide)
chain: FYCPICGAYFTQKGNLLRHIKL
B20: Q9UKT9 (peptide)
chain: LACEICGFTCTQKGNLLRHIKL
B21: Q9UKT9 (peptide)
chain: FDCEICGAKFTQKGNLLRHIKL
B22: Q9UKT9 (peptide)
chain: FLCNICGAIFTQKGNLLRHIKL
B23: Q9UKT9 (peptide)
chain: FCCDICGAEFTQKGNLLRHIKL
B24: Q9UKT9 (peptide)
chain: FICEICGAMFTQKGNLLRHIKL
B25: Q9UKT9 (peptide)
chain: FSCEICGAKFTQKGNLLRHIKL
B26: Q9UKT9 (peptide)
chain: FTCPVCGAVFTQKGNLLRHIKL
B27: Q9UKT9 (peptide)
chain: FHCNQCGATFTQKGNLLRHIKL
B28: Q9UKT9 (peptide)
chain: FKCPVCGATFTQKGNLLRHIKL
B29: Q9UKT9 (peptide)
chain: FQCSVCGHKFTQKGNLLRHIKL
B30: Q9UKT9 (peptide)
chain: FWCEICGAQFTQKGNLLRHIKL
B31: Q9UKT9 (peptide)
chain: FDCNQCGARFTQKGNLLRHIKL
B32: Q9UKT9 (peptide)
chain: FTCSVCGHNFTQKGNLLRHIKL

These sequences were tested against no compound (DMSO) (assay: log2 fold change of degron read counts, EGFP-low vs EGFP+ sorted cells; higher = lower degron-EGFP level without compound (poor expression or instability)). Conditions: compound: DMSO control; 18 h.
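Note: jurkat cells carrying a lentiviral library of mutant zinc finger degrons fused to EGFP plus mCherry, mCherry+ cells FACS sorted, degron abundance counted by next-generation sequencing.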

Row | Sequence | log2 fold change of degron read counts
1 | B1 | -1.85
2 | B2 | -0.637
3 | B3 | 0.644
4 | B4 | -0.893
5 | B5 | -0.339
6 | B6 | -0.307
7 | B7 | -1.87
8 | B8 | -1.71
9 | B9 | -1.33
10 | B10 | -1.39
11 | B11 | 0.546
12 | B12 | -2.24
13 | B13 | -0.701
14 | B14 | -1.8
15 | B15 | -0.686
16 | B16 | -2.21

Row | Sequence | log2 fold change of degron read counts
17 | B17 | -0.872
18 | B18 | -1.05
19 | B19 | 0.894
20 | B20 | -0.905
21 | B21 | -1.23
22 | B22 | 0.288
23 | B23 | -2.49
24 | B24 | -0.373
25 | B25 | -1.41
26 | B26 | -0.0687
27 | B27 | -1.32
28 | B28 | -0.891
29 | B29 | -1.41
30 | B30 | -0.981
31 | B31 | -0.388
32 | B32 | -0.664
